# Results published in the supplement of paper PMC3334620.
# Over roughly 33,000 sequences, “E-score (-0.5 to 0.5)” has its median near -0.021; the highest 2% begin near 0.32. The list shows a part of the results.
# Molecular target: T1, Zap1 (UniProt P47043)
# T1 sequence: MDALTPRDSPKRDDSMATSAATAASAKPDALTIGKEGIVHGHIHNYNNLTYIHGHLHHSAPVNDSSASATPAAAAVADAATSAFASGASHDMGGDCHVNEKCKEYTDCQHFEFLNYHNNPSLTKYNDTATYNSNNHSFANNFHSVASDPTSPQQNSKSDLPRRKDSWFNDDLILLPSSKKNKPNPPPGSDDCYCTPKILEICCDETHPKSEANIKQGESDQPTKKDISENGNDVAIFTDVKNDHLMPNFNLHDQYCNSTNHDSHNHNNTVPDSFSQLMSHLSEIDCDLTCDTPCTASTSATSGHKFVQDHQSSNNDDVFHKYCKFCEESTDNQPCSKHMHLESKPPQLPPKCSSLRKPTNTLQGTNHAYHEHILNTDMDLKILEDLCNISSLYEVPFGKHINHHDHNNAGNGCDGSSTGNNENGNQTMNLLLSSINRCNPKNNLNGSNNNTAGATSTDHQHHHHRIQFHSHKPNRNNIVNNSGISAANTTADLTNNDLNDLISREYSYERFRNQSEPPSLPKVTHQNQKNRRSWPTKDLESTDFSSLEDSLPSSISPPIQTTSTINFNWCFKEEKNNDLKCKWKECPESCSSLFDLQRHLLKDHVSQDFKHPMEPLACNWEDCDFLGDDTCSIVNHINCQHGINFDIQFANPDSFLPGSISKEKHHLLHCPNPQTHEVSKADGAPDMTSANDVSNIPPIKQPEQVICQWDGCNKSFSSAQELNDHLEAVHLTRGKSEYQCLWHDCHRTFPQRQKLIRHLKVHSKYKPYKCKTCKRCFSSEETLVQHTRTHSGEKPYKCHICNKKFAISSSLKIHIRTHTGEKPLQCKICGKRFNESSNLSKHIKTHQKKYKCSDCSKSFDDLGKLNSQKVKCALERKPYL
# Experiment: PBM E-score (8-mer binding enrichment) (E-score (-0.5 to 0.5)); higher = stronger / more preferred TF binding; most listed sequences are background and not binding sites
# Conditions: protein concentration: 200 nM; construct: GST-full length
# Method in brief: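 Bound GST-tagged yeast transcription factors, applied at about 100-200 nM to double-stranded universal all-10-mer Agilent arrays, were detected with fluorescent anti-GST. Scans were normalised with masliner. A modified Wilcoxon-Mann-Whitney statistic, the E-score, was assigned to each ungapped eight-base word pooled with its reverse complement by the Universal PBM Analysis Suite.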
row,Sequence,PBM E-score
1,CCTGGTAG,0.156
2,CCTTATAC,0.0827
3,CAGTCACG,-0.137
4,CACACGCA,-0.0335
5,CACACCGG,-0.0808
6,AAATATTT,0.181
7,CTGCTGGC,-0.322
8,ACCGTCCG,0.00861
9,AATTTTCA,0.0836
10,GACACTCA,-0.146
11,CCACTCTA,0.146
12,CTGCCAGA,-0.0969
13,ACTCCACT,-0.168
14,ACAGCTTG,-0.113
15,CTTTCACC,-0.0507
16,TAATGCGA,0.00701
17,AGTACACC,0.0762
18,ATATACCG,0.134
19,CGCAGCTA,-0.162
20,GCTAATCC,-0.0663
21,CACTGGGC,-0.327
22,GGTGCATA,-0.0507
23,CTGTGGAA,-0.0936
24,CAAGATCG,-0.00013
25,CTGTAAGC,-0.185

row,Sequence,PBM E-score
1,TTGAGAAA,0.112
2,GCGGACCA,0.227
3,ATGTAATA,0.133
4,CAAGAGCC,0.0252
5,CTTGAACA,0.0243
6,AACGTCGC,-0.0554
7,AAGCCGGA,0.155
8,ACCTCCCG,-0.0297
9,TATCTGCA,0.0163
10,CGATGGCG,-0.284
11,CAGGGGAC,-0.0583
12,AATCCGGT,0.145
13,GGCTCCTA,-0.177
14,TACAAGGA,-0.0532
15,AAATTCTT,-0.219
16,CTTCACCC,0.16
17,GAAACCAC,0.116
18,ACGTGCAA,-0.128
19,GTTACGAA,0.315
20,CAGCCCGC,-0.368
21,GACTAGAC,-0.101
22,CAAACACG,0.00956
23,TGCGCTAA,0.0088
24,GCCGTTCC,-0.216
25,TATCTTGA,-0.0601

row,Sequence,PBM E-score
1,CAGCAAAG,0.0786
2,ATTGGCAG,-0.219
3,ACGCTGCC,-0.24
4,AAACAATA,0.16
5,AGTCTCTC,-0.193
6,GTCTCGAA,0.00193
7,GACATAGA,-0.201
8,CGTATGCC,-0.166
9,CTCAAAAG,0.107
10,TACCGCCA,0.0985
11,GCGCCAGA,-0.187
12,TCCATTAA,0.13
13,AAAGTGCG,-0.112
14,TTAGCAAA,-0.00157
15,GTATCCAC,0.00481
16,ATTCATAG,-0.0199
17,GCTTGTAC,-0.0498
18,CCGGAGCA,-0.103
19,ACCGAACA,0.164
20,CAATTGGC,-0.0337
21,TGTACAAA,0.0923
22,AGCTCTGC,-0.244
23,AATGTAGA,-0.0152
24,AGCTTGCG,0.0161
25,CTGTATAA,0.146

row,Sequence,PBM E-score
1,AGAGTTAG,0.0841
2,AAATTAAT,0.137
3,TGACGCCA,-0.0485
4,CGCCTATA,-0.149
5,GAGCCGAC,-0.16
6,CATATGGA,-0.057
7,CCTACACC,0.00539
8,GCCTTAGA,-0.0849
9,CTGAGAAG,-0.17
10,ATTGCCCA,-0.118
11,GACGGAGA,-0.259
12,ACTAACCC,0.271
13,TCGTGTAA,0.037
14,AGTCATCG,-0.0847
15,CGCGAAAG,0.0879
16,CGGGTCAG,0.28
17,GATGAGAC,0.0403
18,CTTACTAA,0.0846
19,GCTCACCC,-0.0292
20,CTGCCTTC,-0.275
21,AACATCAT,-0.0224
22,AAGGCCAA,-0.0469
23,AAGCCCAT,-0.17
24,CCTATTGA,0.158
25,AGACCTAT,0.159

row,Sequence,PBM E-score
1,GGCGGAAC,-0.0843
2,AGGCGTCC,-0.2
3,CCATGGCC,0.2
4,CATCCAGC,-0.108
5,GAGCTAGA,-0.232
6,AACAAAAG,0.195
7,CCCTGAAC,0.21
8,GACTCTTA,0.128
9,CTCTGAGA,-0.111
10,AGTGAATG,-0.00523
11,ATGTCTTG,-0.00745
12,AAGCGAAG,0.0371
13,ACAATCAT,-0.0482
14,GCGCAAGA,-0.0496
15,TACGATCA,0.127
16,CGTGTATA,-0.145
17,ATAGCGCA,-0.152
18,GAGTGGGA,-0.244
19,CCCATTAA,-0.0317
20,CCACGCGG,0.021
21,AATCATCA,0.0469
22,ACAGCAGG,0.0624
23,CATGGAAA,0.114
24,ATGACGGA,0.11
25,GAAGCATA,-0.0632

row,Sequence,PBM E-score
1,GCTATTTA,-0.0443
2,ACGCACTG,-0.122
3,AAAAGACA,0.163
4,ACTCTGCC,-0.148
5,CTGTTTAC,0.0354
6,CTCCTAAC,0.0998
7,ACCGAGAA,0.176
8,AATTCATA,0.215
9,CCAGTTAA,0.197
10,GTTATCCA,0.231
11,CCATAGAC,-0.00887
12,GACCGTCC,-0.0473
13,AACACGTA,-0.0708
14,AACGTAGG,-0.222
15,GAGTAGAC,-0.0776
16,CCAAACAG,0.0992
17,CAAAGCTC,-0.00389
18,GCCAGGAA,-0.0959
19,AGTGACAT,-0.0823
20,GAGCGCTA,-0.137
21,AGATTCCT,-0.185
22,GCCTATAC,-0.326
23,CAAGTAAG,0.129
24,GCATCTGA,-0.171
25,AAACGATT,-0.0766

row,Sequence,PBM E-score
1,CAGCGAGG,0.0288
2,CCATTTGC,-0.0641
3,ACGAACCA,0.219
4,GGTCACGA,0.391
5,CGGCAGAA,-0.233
6,TGGAACCA,0.199
7,ATAACCGA,0.349
8,CAAGGTGA,0.216
9,ATATGTCA,-0.0856
10,GCAGTGCC,-0.123
11,TCACAAGA,0.0766
12,ATGCGTAC,-0.157
13,GTTTGCGA,-0.0367
14,CGCCGAAC,-0.15
15,CGCAGCCA,-0.119
16,GAGTGAGA,-0.236
17,AGTTGGGA,-0.173
18,ATAGCCAT,-0.133
19,ACGACACA,0.0872
20,CTACCAGA,0.0484
21,ATAGCTCG,-0.116
22,AACCTGTC,-0.058
